In all, about 350,000 compounds went through this assay and about 31,000 (8.9%) were called active. Inconclusive results, whose numbers are uncertain, are shown with a selection of clear calls. The call rests on the fitted dose curve; in most records, active means well fitted inhibition curve with a large enough effect; inconclusive means small, poorly fitted or top-dose-only effect; inactive means no such curve, though single readings can be large or run the other way. Potencies beside an inconclusive call are fits to weak or partial responses and may not hold up.
Biological target: Histone-lysine N-methyltransferase EHMT2 (Homo sapiens) (UniProt Q96KQ7)
Chain of UniProt Q96KQ7 (Q96KQ7 whole entry, looked up): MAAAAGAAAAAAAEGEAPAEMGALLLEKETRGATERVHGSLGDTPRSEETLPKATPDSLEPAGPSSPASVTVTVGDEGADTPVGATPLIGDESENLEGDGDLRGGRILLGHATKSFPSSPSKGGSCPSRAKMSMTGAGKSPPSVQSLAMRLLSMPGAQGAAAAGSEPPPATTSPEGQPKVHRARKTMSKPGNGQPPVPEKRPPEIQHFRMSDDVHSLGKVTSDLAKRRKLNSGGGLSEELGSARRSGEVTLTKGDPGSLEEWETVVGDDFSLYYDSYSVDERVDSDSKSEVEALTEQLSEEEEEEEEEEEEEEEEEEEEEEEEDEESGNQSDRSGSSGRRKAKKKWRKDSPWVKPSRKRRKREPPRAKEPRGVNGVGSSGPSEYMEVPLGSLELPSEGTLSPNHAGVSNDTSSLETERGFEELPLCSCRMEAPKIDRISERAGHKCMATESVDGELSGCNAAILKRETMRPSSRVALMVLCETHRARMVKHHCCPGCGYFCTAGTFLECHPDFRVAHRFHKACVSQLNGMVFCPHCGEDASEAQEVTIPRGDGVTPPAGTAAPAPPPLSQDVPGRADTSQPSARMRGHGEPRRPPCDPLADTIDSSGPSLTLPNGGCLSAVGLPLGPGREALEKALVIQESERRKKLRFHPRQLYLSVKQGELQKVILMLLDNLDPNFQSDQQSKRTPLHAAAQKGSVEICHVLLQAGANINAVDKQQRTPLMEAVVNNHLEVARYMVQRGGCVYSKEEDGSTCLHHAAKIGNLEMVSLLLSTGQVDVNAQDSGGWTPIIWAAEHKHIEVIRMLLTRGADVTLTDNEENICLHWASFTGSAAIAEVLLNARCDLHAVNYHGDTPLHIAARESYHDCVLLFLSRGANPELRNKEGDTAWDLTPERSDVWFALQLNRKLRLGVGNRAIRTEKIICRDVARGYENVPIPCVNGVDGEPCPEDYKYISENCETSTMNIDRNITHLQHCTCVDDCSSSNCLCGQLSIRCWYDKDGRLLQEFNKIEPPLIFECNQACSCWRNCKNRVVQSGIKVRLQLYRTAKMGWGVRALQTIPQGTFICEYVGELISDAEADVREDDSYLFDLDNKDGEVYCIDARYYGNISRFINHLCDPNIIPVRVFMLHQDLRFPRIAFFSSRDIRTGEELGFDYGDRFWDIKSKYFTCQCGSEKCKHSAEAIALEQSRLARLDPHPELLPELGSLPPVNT
Test: qHTS Assay for Inhibitors of Histone Lysine Methyltransferase G9a; further: nearly all actives have a fitted effect of over 75% in size
Settings: G9a H3K9 monomethylation, AlphaScreen, 2 h; activity, negative = inhibition: at 59 µM (top of the series) unless noted
In short: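 Step 1: enzyme (final 20 nM) with compound, 15 min RT. Step 2: substrate peptide 500 nM and SAM 20 uM, 2 h RT. Step 3: anti-H3K9me1 antibody and AlphaScreen beads, 10 min, then plate read.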
On the % scale 0 is the no-effect control and ±100 the full control effect; potency means the concentration at half of the fitted maximal effect; tags describe the fitted curve by direction and shape.

Row | Structure (SMILES) | Potency | activity, negative = inhibition
1 | Cc1ccc(NC(=O)COC(=O)COc2cccc3c2OC(C)(C)C3)cc1S(=O)(=O)N1CCOCC1 | inconclusive: 79.4 µM [inhibitor, partial curve] | –
2 | Cn1ccnc1SCC(=O)c1ccc(Br)cc1 | active: 50.1 µM | –
3 | CCOC(=O)C1CCN(S(=O)(=O)c2cccc(-c3cn4cc(Cl)ccc4n3)c2)CC1 | inconclusive: 14.1 µM [inhibitor, partial curve, poor fit] | –
4 | Cc1ccc(S(=O)(=O)c2nc(-c3ccccc3)oc2SCC(=O)NCC2CCCO2)cc1 (stereo not drawn) | active: 44.7 µM | –
5 | COC(=O)c1ccc(Cl)cc1NC(=O)/C=C/c1ccc(C)o1 | inconclusive: 28.2 µM [inhibitor, partial curve, poor fit] | –
6 | Cc1ccc(S(=O)(=O)CCC(=O)NC2CCCCC2)cc1 | inconclusive: 6.31 µM [inhibitor, single point] | –
7 | O=C(Nc1ccc2nc(SCC(=O)N3CCCC3)sc2c1)c1cccc(Br)c1 | inactive | –
8 | Cc1c2ccccc2nc2c(F)c(NCCO)c(F)c(F)c12 | inconclusive: 89.1 µM [inhibitor, single point] | –
9 | Cc1occc1C(=O)N1CCCC(N2CCN(c3cccc(C(F)(F)F)c3)CC2)C1 (stereo not drawn) | inconclusive: 89.1 µM [inhibitor, single point] | –
10 | CC(C)(C)NC(=O)C(=O)NNC(=O)c1ccccc1 | inconclusive: 22.4 µM [inhibitor, single point] | –
11 | COc1cc2ncnc(NCc3ccc(Cl)cc3)c2cc1OC | inconclusive: 25.1 µM [inhibitor, partial curve] | –
12 | COCCNc1nc2ccccc2n1CC(=O)c1ccc(OC)c(OC)c1 | inconclusive: 89.1 µM [inhibitor, single point] | –
13 | CCn1c(O)c(N=NC(=O)CNC(=O)/C=C/c2ccco2)c2ccccc21 | active: 56.2 µM | –
14 | CC(=O)N1CCc2cc(S(=O)(=O)CCC(=O)N3CCc4ccccc4C3)ccc21 | inconclusive: 89.1 µM [inhibitor, single point] | –
15 | COc1cccc(/C=N/n2c(C3CCCCC3)n[nH]c2=S)c1OC | inconclusive: 22.4 µM [inhibitor, single point] | –
16 | CCCCc1nn2c(=O)cc(COC(=O)c3ccc(NC(=O)CCc4ccccc4)cc3)nc2s1 | inactive | –
17 | COC(=O)C(C)Sc1nnc(SC(C)C(=O)OC)s1 (stereo not drawn) | inconclusive: 3.55 µM [inhibitor, partial curve, poor fit] | –
18 | CCN(CC)C(=O)c1csc(Nc2ccc(C)cc2)n1 | active: 12.6 µM | –
19 | COc1cc(S(=O)(=O)Nc2ccccc2N2CCCCC2)ccc1NC(C)=O | – | inactive: -6.15% [at 2.33 µM]
20 | O=C(O)c1cc(NCc2ccc(F)cc2)ccc1N1CCOCC1 | inconclusive: 25.1 µM [inhibitor, partial curve, poor fit] | –
21 | O=S(=O)(Nc1ccc(N2CCCCC2)cc1)c1ccc(F)c(F)c1 | active: 12.6 µM | –
22 | Cc1[nH]n(-c2ccccc2)c(=O)c1C=Nc1ccc(S(N)(=O)=O)cc1 | inconclusive: 89.1 µM [inhibitor, single point] | –
23 | COc1ccc(/C=C/C(=O)Nc2ccccc2C(N)=O)cc1S(=O)(=O)N1CCOCC1 | inconclusive: 50.1 µM [inhibitor, partial curve, poor fit] | –
24 | CCOC(=O)C1CCCCN1Cc1cc(OC)ccc1OC (stereo not drawn) | active: 12.6 µM | –

Row | Structure (SMILES) | Potency | activity, negative = inhibition
25 | c1ccc(OCCCCN2CCCCC2)cc1 | inactive | –
26 | COc1ccc(NC(=O)c2cccnc2Sc2ccccc2)c(OC)c1 | inconclusive: 1.12 µM [inhibitor, full curve] | –
27 | O=C(OCc1nc2ccccc2[nH]1)C1CCCCC1 | inactive | –
28 | Cc1ccc(CCNC(=O)CS(=O)Cc2nc(-c3ccccc3C)oc2C)cc1 (stereo not drawn) | inconclusive: 11.2 µM [inhibitor, partial curve, poor fit] | –
29 | Cc1ccc(NC(=O)c2cc3ccccc3cc2O)cc1 | inactive | –
30 | O=C(c1cc(S(=O)(=O)N2CCN(c3ccccc3)CC2)ccc1Cl)N1CCCC(C(F)(F)F)C1 (stereo not drawn) | – | inactive: 19% [at 0.501 µM]
31 | COc1ccc(CN2CC(=O)N(c3cc(Cl)ccc3OC)C2=S)cc1OC | inconclusive: 50.1 µM [inhibitor, partial curve, poor fit] | –
32 | Cc1ccccc1OCCNC(=S)Nc1ccccc1 | inactive | –
33 | COc1ccc(/C=N/NC(=O)CCn2c3ccccc3c3ccccc32)cc1OC | inconclusive: 3.16 µM [inhibitor, partial curve, poor fit] | –
34 | CCc1ccc(OCc2nc(-c3ccc(OC)cc3)no2)c(Br)c1 | inactive | –
35 | Cc1cc(N/N=C/c2ccc(Cl)cc2Cl)nc(NCc2ccccc2)n1 | inconclusive: 8.91 µM [inhibitor, single point] | –
36 | COc1cc(-c2nnc(NC(=O)c3ccco3)o2)cc(OC)c1OC | inconclusive: 8.91 µM [inhibitor, full curve] | –
37 | O=C(CN1C(=O)NC(c2ccccc2)(c2ccccc2)C1=O)c1c[nH]c2ccccc12 | inactive | –
38 | c1ccc(CN2CCN(C3=Nc4cccc5cccc3c45)CC2)cc1 | inconclusive: 1 µM [inhibitor, full curve, poor fit] | –
39 | O=C(NC1CCCCC1)C1CCCN(S(=O)(=O)c2cnc[nH]2)C1 (stereo not drawn) | inactive | –
40 | O=C(Cn1cnc2c(oc3ccccc32)c1=O)Nc1ccc(F)cc1F | inactive | –
41 | O=[N+]([O-])c1ccc(-c2csc3[n+]2CCS3)cc1 | active: 35.5 µM | –
42 | Cc1cc(NC(=O)CSc2nc3ccccc3n2CCC#N)no1 | inactive | –
43 | COc1cccc(-n2c(SCC(=O)NCCc3ccccc3)nnc2-c2ccoc2C)c1 | inconclusive: 50.1 µM [inhibitor, partial curve] | –
44 | Cc1ccc(-n2nc3c(c2NC(=O)C(C)(C)C)CSC3)c(C)c1 | active: 39.8 µM | –
45 | O=[N+]([O-])c1cccc(CN2CCCCCC2)c1 | inactive | –
46 | CCOc1ccc(CCNC(=O)c2oc3c(c2C)-c2[nH]ncc2CC3)cc1OCC | active: 44.7 µM | –
47 | O=S(=O)(c1ccc2nc(NCc3ccccc3Cl)ccc2c1)N1CCCCC1 | active: 7.94 µM | –
48 | CC(C)OC(=O)CNc1n[nH]c(=S)[nH]c1=O | active: 25.1 µM | –
